± gives the standard deviation. This is a selection; strong and weak results do not stand in their true shares.
Test system: MIWI (PIWIL1) piRISC loaded with piRNA #1 (30 nt)
Assay: pre-steady-state target cleavage rate (min^-1); MIWI and MILI are mouse PIWI proteins and EfPiwi is from a freshwater sponge; tags in brackets are library labels; higher = faster piRNA-guided slicing of the target
Conditions: guide: piRNA #1 5'p-UGAGGUAGUAGGUUGUAUAGUAUCCAGAGG; auxiliary factor: 500 nM mouse GTSF1
Summary of the method: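 Sequencing of uncleaved targets, normalised to depth and to weakly complementary targets, was the readout of this Cleave-'n-Seq assay. A transcribed, DNA-blocked target RNA library (0.1 nM) was mixed with 1 nM active affinity-purified piRISC carrying one synthetic guide, with or without 500 nM GTSF1 partner protein, in HEPES–potassium acetate buffer at 33 °C for 0–8 or 0–960 min. Three trials were pooled, k3 was capped at 0.0001 min^-1, and a burst-and-steady-state fit gave the pre-steady-state cleavage rate.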

Sequence	pre-steady-state target cleavage rate
GGACUGGAUACUAUACAACGUACAACCUCA	0.443 ± 0.053
GGACUGGAUACAAUAGAACCUACUACCUCA	1.1 ± 0.082
GGUCUGGAUACUAUACAACCAACUAGCUCA	0.017 ± 0.0042
GGAGACCUAUCUAUACAACGUACUACGUCA	0.0743 ± 0.014
GGAGACCUUACUAUACAACCUUGUACCUCA	0.0118 ± 0.0031
GCUCUGGAUACUAUACAACCUUCUACCUGA	0.244 ± 0.044
GGAGUGGAUACUAAACAACCUACUAGCUCA	0.108 ± 0.019
GGUCUGGAUACGUAUACAACCUACUACCUCA	1.44 ± 0.081
GGAGACGAUACAAUACAACCUACUACCUGA	0.606 ± 0.064
GGAGACCUAUCUGUACAACCUACUACCUCA	0.249 ± 0.025
GGAGAGGUUACAAUACAACCUACUACCUCA	1.09 ± 0.07
CCUCUGGAUACUUUACAACCUACUUCCUCA	0.372 ± 0.042
GCUCUGGGAUACUAUACAACCUACUACCUCA	1.89 ± 0.096
GGAGACCUAACUAUACAACCUACUACCUA	0.622 ± 0.065
GGAGAGGAUACUAUACAACCUCACUACCUCA	0.00419 ± 0.0025
GCUCUGGAUAUCUAUACAACCUACUACCUCA	0.861 ± 0.052
GGAGACCUUACUAUACCACCUACUACCUCA	0.971 ± 0.072
GGAGACCUAUGUUUACAACCUUCUACCUCA	0.00267 ± 0.0024
CCUCUGGAUACUAUACAAGCUACAACCUCA	1.16 ± 0.067
CCUCUGGAUACUAUACAACUACUACCUCA	0.673 ± 0.042

Sequence	pre-steady-state target cleavage rate
CGUCUGGAUACUAUACUACCUACUACCUCA	1.55 ± 0.09
GCUCUGGAUACAAUACAACCUAGUACCUCA	0.314 ± 0.047
GGUCUGGAUACUAUACAACCUAGAACCUCA	0.00767 ± 0.0022
GGUGUGGAUACUAUACAACCUAGUACCUCA	0.393 ± 0.051
GGAGACGAUUCUAUACAACCUACUACGUCA	0.92 ± 0.069
GCUCUCGAAACUAUACAACCUACUACCUCA	1.75 ± 0.12
CCUCUGGUAUACUAUACAACCUACUACCUCA	0.693 ± 0.029
GGAGUGGAUACUAUAGUACCUACUACCUCA	1.03 ± 0.065
GGAGACCUUACCUAUACAACCUACUACCUCA	0.489 ± 0.043
GGAGACCUAUGUAUAGAACCUUCUACCUCA	0.0033 ± 0.0012
GCACUGGAUACUAUAGAACCUACUACCUCA	1.1 ± 0.051
GGAGACGAUACUAUACAACCUACAUGCUCA	0.166 ± 0.03
CCUCUGGAAACUAUACAACCUACAACCUCA	1.79 ± 0.19
GGAGUGGAUACUAAACUACCUACUACCUCA	0.827 ± 0.064
GGACUGGACACUAUACAACCUACUACCUCA	1.63 ± 0.14
GGUCUGGAUAACUAUACAACCUACUACCUCA	1.17 ± 0.084
GGAGACCUAACUCUACAACCUACUACCUCA	0.234 ± 0.047
GGAGACCUAUGAUAUGUUCCUACUACACUCA	< 0.0001
CGACUGGAUACUAUACAACCUACUACCUCA	1.99 ± 0.12
GCUCUGCAUACUAUACAUCCUACUACCUCA	1.52 ± 0.087

From the supplement of paper PMC10338343
